Data on 115 sequences can be found in the BET-seq Pho4 binding data (Le et al. 2018).

This is one part of the list. These are noisy estimates, calculated here from bound and input reads.

For this test, the target named is T1, Pho4 (S. cerevisiae) (UniProt P07270).
T1 sequence: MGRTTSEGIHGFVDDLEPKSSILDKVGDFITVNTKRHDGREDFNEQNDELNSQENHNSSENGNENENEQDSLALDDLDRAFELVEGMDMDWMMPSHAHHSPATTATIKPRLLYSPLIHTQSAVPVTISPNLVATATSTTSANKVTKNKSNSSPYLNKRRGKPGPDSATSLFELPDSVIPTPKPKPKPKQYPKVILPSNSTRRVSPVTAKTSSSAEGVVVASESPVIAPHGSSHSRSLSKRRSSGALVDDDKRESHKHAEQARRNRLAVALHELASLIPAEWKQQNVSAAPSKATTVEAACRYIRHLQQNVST
Description: relative binding free energy (BET-seq); higher = weaker binding. The note with it: reference: library average.
For the sequence ATCAACACGTGGGGTA, the “relative binding free energy” value was -0.12 kcal/mol.
As for TAAATCACGTGTTTAT, the figure is 0.07 kcal/mol; as for TAGGTCACGTGCTGTG, -0.03 kcal/mol; as for ATGGACACGTGGGGGT, -0.15 kcal/mol.
As for AATCGCACGTGTAGTG, the figure is 0.1 kcal/mol; as for TGGAGCACGTGCTTTA, -0.06 kcal/mol; as for GAAGTCACGTGAGATT, 0.32 kcal/mol.
For the sequence GAGGCCACGTGGATGT, the “relative binding free energy” value was determined as 0 kcal/mol.
For TGTTACACGTGGCGTG the value was 0.2 kcal/mol; for TAAAGCACGTGAAGGG, 0.36 kcal/mol; for TCGATCACGTGAAGGT, 0.33 kcal/mol.
For TAAGTCACGTGCGGAT the value was 0.11 kcal/mol; for ACAGGCACGTGATGGG, -0.06 kcal/mol; for TTGTTCACGTGTGTGA, 0.29 kcal/mol.
For GGCTTCACGTGTAGGA the value was 0.23 kcal/mol.
On to TCGTTCACGTGTTATT, for which the “relative binding free energy” value came out at 0.2 kcal/mol.
On to GTGTACACGTGTAAAG, for which the “relative binding free energy” value is 0.23 kcal/mol.
For AGATTCACGTGTATTG the value was 0.05 kcal/mol; for GCGTTCACGTGCGGGT, 0.33 kcal/mol.
As to GAAGCCACGTGTTGGG, the “relative binding free energy” value is -0.04 kcal/mol.
For the sequence GGCAACACGTGGTGGT, the “relative binding free energy” value was -0.09 kcal/mol.
For TGTGTCACGTGTTAAC the value was 0.09 kcal/mol; for CGGGACACGTGATAGT, 0.21 kcal/mol; for TGGTCCACGTGTTTTG, 0.05 kcal/mol.
As for TAAGGCACGTGGATAG, the figure is -0.14 kcal/mol.
For GGGTCCACGTGAAGGC the value was 0.41 kcal/mol.
Take ACTGTCACGTGGGTTG: the “relative binding free energy” value is -0.12 kcal/mol.
For TATATCACGTGAGGAG the value was 0.33 kcal/mol.
Turning to TAAATCACGTGGTGGA, the “relative binding free energy” value was 0.18 kcal/mol.
Take TGGGTCACGTGGTGGC: the “relative binding free energy” value is 0.09 kcal/mol.
As to ATTTTCACGTGGCAAG, the “relative binding free energy” value was determined as 0.25 kcal/mol.
For TAGTGCACGTGTTTAG the value was 0.02 kcal/mol.
As for AGGGTCACGTGGTTTT, the “relative binding free energy” value amounted to 0.23 kcal/mol.
For TTAGACACGTGAGGTA, the “relative binding free energy” value came out at 0.12 kcal/mol.
As for GTTATCACGTGGGTAT, the figure is 0.14 kcal/mol; as for CTGGACACGTGCGGTG, 0 kcal/mol.
Regarding TGGGGCACGTGTTAGT, the “relative binding free energy” value is -0.05 kcal/mol.
For ATTGTCACGTGACGTA the value was 0.11 kcal/mol; for CAGGTCACGTGTAGCG, 0.3 kcal/mol; for GAATGCACGTGAGGAG, 0.34 kcal/mol.
As for GATTGCACGTGATGTT, the figure is 0.25 kcal/mol.
For AGAGCCACGTGGGGAG the value was -0.26 kcal/mol; for TATTACACGTGGTGCA, -0.06 kcal/mol.
As for AGGTACACGTGAAGTG, the “relative binding free energy” value amounted to 0.2 kcal/mol.
Take TGTGGCACGTGATGCG: the “relative binding free energy” value was determined as 0.07 kcal/mol.
As for TGATTCACGTGGAGGG, the figure is 0.26 kcal/mol.
Turning to GTGGCCACGTGGTTCG, the “relative binding free energy” value was -0.02 kcal/mol.
ATTAGCACGTGATTCG: the “relative binding free energy” value was 0.12 kcal/mol.
As for AGCGGCACGTGAGAGT, the figure is 0.18 kcal/mol; as for AGGAACACGTGTTATT, -0.01 kcal/mol; as for TCATGCACGTGGTGAG, -0.09 kcal/mol.
As for GTAAACACGTGAATGG, the figure is 0.34 kcal/mol.
For GTGAGCACGTGTGGGT the value was -0.08 kcal/mol; for TGTTACACGTGTTTGT, 0.13 kcal/mol; for TAAAGCACGTGGGTTC, -0.07 kcal/mol.
As for TAGTGCACGTGATGTC, the “relative binding free energy” value was found to be 0.15 kcal/mol.
As for ATTATCACGTGTTTGA, the figure is 0.16 kcal/mol; as for CGTGCCACGTGGAGGT, -0.05 kcal/mol.
On to TGGATCACGTGGGGGT, for which the “relative binding free energy” value is 0.09 kcal/mol.
Take TTTAACACGTGTGAGA: the “relative binding free energy” value was determined as 0.05 kcal/mol.
For TGGGACACGTGGGACT the value was -0.15 kcal/mol; for GTGGTCACGTGCTGGA, 0.18 kcal/mol; for TTTGGCACGTGTGTGA, 0 kcal/mol.
In the case of GTTATCACGTGCTGAT, the “relative binding free energy” value was found to be 0.29 kcal/mol.
As for TTCGACACGTGTTGTA, the figure is 0.12 kcal/mol; as for TGGGACACGTGGCGGA, -0.03 kcal/mol.
As for TGTGTCACGTGTATAG, the figure is -0.05 kcal/mol; as for AGGGGCACGTGTGCGG, -0.21 kcal/mol.
GTGAGCACGTGCAGGA: the “relative binding free energy” value was -0.13 kcal/mol.
As for CGTGTCACGTGCAAGT, the “relative binding free energy” value stood at 0.13 kcal/mol.
Take TTGGGCACGTGTGCCT: the “relative binding free energy” value is -0.04 kcal/mol.
For TTTGTCACGTGCTTAA the value was 0.17 kcal/mol; for GGCTGCACGTGTGGAA, 0.32 kcal/mol.
TGTGGCACGTGATTAC: the “relative binding free energy” value was 0.1 kcal/mol.
As for GGCGTCACGTGGCTTG, the “relative binding free energy” value was determined as 0.18 kcal/mol.
For CGATGCACGTGTTGGG the value was -0.15 kcal/mol; for TTATGCACGTGACTGG, 0.03 kcal/mol.
As for TAAGGCACGTGCGTAA, the figure is -0.09 kcal/mol; as for CTTGGCACGTGGGGGC, -0.3 kcal/mol.
For AATGGCACGTGACTGT the value was -0.06 kcal/mol.
As for CGAGCCACGTGGGGAG, the “relative binding free energy” value is -0.07 kcal/mol.
For TAAAGCACGTGGCGGT the value was -0.16 kcal/mol; for CGTGTCACGTGAGTGG, 0.27 kcal/mol; for GGGGTCACGTGTTATG, 0.34 kcal/mol.
On to CGGGACACGTGTTGTG, for which the “relative binding free energy” value was -0.05 kcal/mol.
As for CTGTGCACGTGGTGGA, the figure is 0.01 kcal/mol.
Regarding GTGGGCACGTGTGGGG, the “relative binding free energy” value turned out to be 0 kcal/mol.
Consider TGTAACACGTGTTGAT, for which the “relative binding free energy” value is -0.01 kcal/mol.
On to AGTATCACGTGTTGGC, for which the “relative binding free energy” value was 0.15 kcal/mol.
As for GGGGGCACGTGGGTGT, the figure is -0.12 kcal/mol; as for TGGGCCACGTGGGCAT, -0.2 kcal/mol; as for GAATTCACGTGTCGGT, 0.28 kcal/mol.
For CTGGGCACGTGTGTTG, the “relative binding free energy” value is -0.04 kcal/mol.
AGATGCACGTGAAGGA: the “relative binding free energy” value is 0.29 kcal/mol.
For TGAGACACGTGGTTTG the value was -0.02 kcal/mol.
For GGGGACACGTGAGAGA the value was 0.33 kcal/mol.
With TGAAACACGTGGCGGT, the “relative binding free energy” value was 0.03 kcal/mol.
As for TCGGGCACGTGTTGTC, the figure is -0.02 kcal/mol.
As to GGAGACACGTGGTAGA, the “relative binding free energy” value amounted to 0.01 kcal/mol.
For the sequence AGGTACACGTGCGATG, the “relative binding free energy” value was 0.14 kcal/mol.
For AATATCACGTGATGGA the value was 0.25 kcal/mol.
As to GCTGACACGTGTTTGT, the “relative binding free energy” value was -0.06 kcal/mol.
For GGAGGCACGTGAGTTG the value was 0.18 kcal/mol.
As for AGTTTCACGTGAGGTA, the figure is 0.27 kcal/mol; as for GTTAGCACGTGTAGCT, -0.01 kcal/mol; as for GTTCGCACGTGAGTTG, 0.1 kcal/mol.
For the sequence GTGGACACGTGAACGT, the “relative binding free energy” value is 0.29 kcal/mol.
For GAGTTCACGTGCTGAG, the “relative binding free energy” value turned out to be 0.31 kcal/mol.
For TCGTTCACGTGGGAGT the value was 0.13 kcal/mol; for TTAGCCACGTGTTTTG, 0.02 kcal/mol.
For TAAATCACGTGTAGGA the value was 0.17 kcal/mol; for TCAGGCACGTGATTTT, 0.03 kcal/mol; for ATAAACACGTGGGTAA, 0 kcal/mol.
As for TGATGCACGTGGGCTG, the figure is -0.26 kcal/mol; as for GGCGTCACGTGGAGTA, 0.08 kcal/mol.
